The record followed here is patent EP4722247A1 (Oricell Therapeutics Co., Ltd., dated 2026).

To fix the notation:
T1: Human CD39-His protein (CD9-H52H4, ACRO Biosystems) (human, UniProt P49961 38-478)
T1 construct: Purchased protein; also called human CD39-His antigen; human CD39 protein; not shown: His tag
T1 sequence (looked up): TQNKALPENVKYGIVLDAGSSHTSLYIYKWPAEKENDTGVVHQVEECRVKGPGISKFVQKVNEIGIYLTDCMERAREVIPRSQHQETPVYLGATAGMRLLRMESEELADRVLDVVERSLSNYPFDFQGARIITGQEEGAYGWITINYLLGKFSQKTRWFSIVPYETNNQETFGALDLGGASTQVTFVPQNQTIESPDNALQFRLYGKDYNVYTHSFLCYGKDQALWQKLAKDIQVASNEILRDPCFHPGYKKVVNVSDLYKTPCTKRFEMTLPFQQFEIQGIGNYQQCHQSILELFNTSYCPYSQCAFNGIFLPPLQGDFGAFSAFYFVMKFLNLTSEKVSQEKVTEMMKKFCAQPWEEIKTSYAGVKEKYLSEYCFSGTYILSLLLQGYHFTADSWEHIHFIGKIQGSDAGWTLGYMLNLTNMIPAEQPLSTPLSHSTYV

B1: B39C6-G06 (Fc fusion)
chain: QLQLVESGGGLVQPGGSLRLSCAASGFTLDYYAIGWFRQAPGKEREGVACISSSGGSTNYADFVRGRFSSSRDNAKNTVYLQMDSLKPEDTAVYYCAADVSTAPYNDAVRSCTGGNRLASTYDVWGQGTQVTVSS[human IgG4 Fc with S228P (EU numbers) omitted here]
notes: Bivalent VHH-IgG4 Fc made in Expi293F; no extra linker is stated
B2: B393-D07 (Fc fusion)
chain: QLQLVESGGGLVQPGGSLRLSCAASGFTLDYYAIAWFRQRPGKEREGVSCISSSNGNINYADSVKGRFTASRDNAKNTVYLQMNSLKPEDTAVYYCAADLSAAPYNDAVRSCTGGSRLRATYDFWGQGTQVTVSS[human IgG4 Fc with S228P (EU numbers) omitted here]
notes: as for B1
B3: B39C8-G05 (Fc fusion)
chain: EVQVVESGGGLVQPGGSLRLSCAASGFTLDYYAIAWFRQAPGKGREGVSCISSSGGSTNYADSVKGRFTASRDTAKNTVYLQMNSLKPEDTAVYYCAADLSAAPYNDAVRSCTGGNRLAATYDFWGQGTQVTVSS[human IgG4 Fc with S228P (EU numbers) omitted here]
notes: as for B1
B4: B391-G06 (Fc fusion)
chain: QLQLVESGGGLVQTGGSLRLSCTASGGTFRSKTMGWFRQAPGKEREFVAIMTWIGDVGLYADSVKGRFTISRDNARNTLYLQMNNLKPEDTAVYYCGASRGGPPYSMVVHTTSPNGYDYWGQGTQVTVSS[human IgG4 Fc with S228P (EU numbers) omitted here]
notes: as for B1
B5: B391-A04 (Fc fusion)
chain: QVQLVESGGGLVQAGGSLRLSCTASGGTFSSRTMGWFRQPPGKEREFVAIMTWIGDVGLYADSVKGRFTISRDNARNTLYLQMNNLKPEDTAVYYCGASRGGSYSMVIHTTSPNDYDYWGQGTQVTVSS[human IgG4 Fc with S228P (EU numbers) omitted here]
notes: as for B1
B6: B391-hF04 (Fc fusion)
chain: EVQLVESGGGLVQPGGSLRLSCAASGFTFSNLGMSWYRQAPGKAREWVGSISASGDYTTYQNSVKGRFTISRDNSKNTLYLQMNSLRAEDTAVYYCTRRVDSYPRGQGTLVTVSS[human IgG4 Fc with S228P (EU numbers) omitted here]
notes: also called B391-hF04 humanized antibody; humanized B391-F04

The first experiment has as its target T1, Human CD39-His protein (CD9-H52H4, ACRO …). Description: BLI (Fortebio), antibody on AHC probe, human CD39-His in solution. (In BLI a coated tip is dipped into the sample, and binding shifts an interference pattern.)
In turn, B1 yielded a Kd of 0.579 nM, a koff of 8.25e-05 s⁻¹ and an on-rate (kon) of 143000 M⁻¹ s⁻¹.
Regarding B2, binding was characterised by a dissociation constant (Kd) of 1.15 nM, the koff is 0.000151 s⁻¹ and the kon is 132000 M⁻¹ s⁻¹.
B3 came in with a Kd of 0.264 nM, a koff of 4.06e-05 s⁻¹ and a kon of 154000 M⁻¹ s⁻¹.
Molecule B4 registered a Kd of 5.23 nM, a koff of 0.000447 s⁻¹ and a kon of 85500 M⁻¹ s⁻¹.
For B5 the same measures were 7.76 nM, 0.000778 s⁻¹ and 100000 M⁻¹ s⁻¹.

For another experiment the target is unchanged. The description is as above. The source holds these as a separate data set.
In turn, B6 came in with a Kd of 0.866 nM, an off-rate constant (koff) of 0.000354 s⁻¹ and a kon of 409000 M⁻¹ s⁻¹.

As usually defined, the Kd is the constant that tells how readily two partners part at equilibrium. A word on the koff: it is the first-order rate constant of dissociation. Lower therefore signals a long-lived complex. The kon is a measure of how fast the partners come together. A high value points to faster complex formation.
